The whole screen tested about 48,000 compounds, of which about 1,200 (2.5%) were called active. Another 2% or so got no clear call; they are omitted.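 Rule for the calls: active = activation of at least 60% and not above a set upper limit (about 1 call in 100 departs from these limits); inconclusive = activation of 40% to 60%, or above that upper limit; inactive = activation under 40%.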 The list shows a part of the results.

UniProt O75388, sequence (O75388 whole entry, looked up, the tested form may be a part): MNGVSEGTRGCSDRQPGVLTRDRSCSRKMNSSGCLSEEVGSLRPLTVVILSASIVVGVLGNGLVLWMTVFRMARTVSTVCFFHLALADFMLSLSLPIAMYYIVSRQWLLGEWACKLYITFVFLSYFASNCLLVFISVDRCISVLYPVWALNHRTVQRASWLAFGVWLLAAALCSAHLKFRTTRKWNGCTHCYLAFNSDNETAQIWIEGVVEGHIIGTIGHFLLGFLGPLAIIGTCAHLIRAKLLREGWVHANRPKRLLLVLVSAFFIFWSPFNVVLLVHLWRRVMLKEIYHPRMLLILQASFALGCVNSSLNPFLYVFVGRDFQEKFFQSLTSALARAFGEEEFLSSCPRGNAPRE

The test deals with Probable G-protein coupled receptor 32 (Homo sapiens) (UniProt O75388). In words: qHTS for Agonists of Human Resolvin D1 Receptor DRV1. Note: 0% is about no effect. The conditions noted are these: CHO-K1 GPR32 beta-arrestin PathHunter luminescence, 90 min; at 76.9 µM; active compounds read high; zero percent set by DMSO-only wells. An outline of the steps:
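GPR32 activation in stably transfected CHO-K1 cells, detected as beta-arrestin recruitment by enzyme-fragment complementation. Compound exposure: 90 min, 37 °C.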
Background: Quantitative high-throughput screening tests each substance at several concentrations.
For `Cc1ccc(Cl)cc1Nc1sc(C(=O)c2ccccc2)c(N)c1S(=O)(=O)c1ccccc1`, the activation was inactive: -17.4%. Under `CC(C)(C)c1ccc(C(=O)N2CC(=O)Nc3ccc(F)cc3C2c2ccc(F)cc2)cc1` (centres undefined) stands inactive: -27.9%. Consider `Cc1cc(C)c2oc(-c3cccc(NC(=O)c4cc5ccccc5o4)c3)nc2c1`, for which the activation is inactive: 23%.

`CCc1cnc2c(c1SCC(=O)NCc1ccccc1)c(=O)n(C)c(=O)n2C`: the activation was inactive: -0.087%. Under `COc1cc(CCC(=O)NCc2ccc3c(c2)CCN3C(=O)c2cccc(C)c2)cc(OC)c1OC` stands inactive: -15.7%; under `COc1cc(C2c3c(oc4ccccc4c3=O)C(=O)N2Cc2ccccc2Cl)ccc1O` (centres undefined), inactive: -0.233%. Under `O=C(c1ccco1)N1CCN(c2nc3ccc(Cl)cc3s2)CC1` stands inactive: 8.27%; under `CCn1ccc2cc(S(=O)(=O)N3CCC(C(=O)NCCOC)CC3)ccc21`, inactive: 0.31%; under `CCc1nc2ccc(C(=O)NCCc3ccc(OC)c(OC)c3)cc2nc1CC`, inactive: -4.01%. Take `CCOc1ccccc1CNC(=O)c1[nH]c2ccccc2c1Sc1ccccc1`: the activation was inactive: -22.5%. Under `CCCOC(=O)c1ccc(N)cc1` stands inactive: 0.577%; under `Nc1ncnc2c1ncn2C1CCCC1`, inactive: -0.635%. Under `O=S(=O)(c1ccc(-c2cc(C(F)(F)F)on2)s1)N1CCN(c2cccc(Cl)c2)CC1` stands inactive: 6.79%. For the compound `CCN1CCN(CCCNC(=O)c2cc3c(s2)-c2c(C)cccc2OC3)CC1`, the activation was inactive: 11.5%. `Cc1nn2c(C(F)(F)F)cc(-c3ccc(OC(C)C)cc3)nc2c1C#N`: the activation was inactive: -0.305%. On to `Cc1ccccc1OCC(=O)Nc1ccccc1C(=O)OCc1cc(=O)n2c(C)csc2n1`, for which the activation was inactive: 10.6%. Under `COCCn1c(C)cc(O)c(C(c2ccccc2OC)N2CCCCC2)c1=O` (centres undefined) stands inactive: -15.7%; under `COc1ccc(OC)c(CCNC(=O)c2ccc3[nH]c(C)c(C)c3c2)c1`, inactive: -6.97%; under `COc1ccc(C(CC(=O)Nc2ccc(OC)c(OC)c2)N2Cc3ccccc3C2=O)cc1` (centres undefined), inactive: -20.1%.

As for `O=C(Nc1cccc(C2=NCCN2)c1)Nc1cccc(C2=NCCN2)c1`, the activation is inactive: -0.218%. For `Cc1ccc(C)c(N2CCN(C(=O)c3cccn3-c3nnc(N4CCCCC4)s3)CC2)c1`, the activation is inactive: -5.15%. Under `COc1cccc(CNC(=O)c2cc3c(=O)n(C)c4ccccc4c3n2C)c1` stands inactive: -2.5%; under `COC(=O)Cc1c(C)c2ccc3c(c2oc1=O)CN(Cc1ccc(Cl)cc1)CO3`, inactive: -13.5%; under `CCOc1ccc(-n2cc(-c3ccccc3)c3c(NCc4ccccc4)ncnc32)cc1`, inactive: -36.4%. For the compound `COCCn1c(SCc2ccccc2F)nc2c([nH]c3ccccc32)c1=O`, the activation was inactive: -3.43%. Under `COc1cc(CN(C(=O)c2ccc(C)cc2)C2CCS(=O)(=O)C2)cc(OC)c1OC` (centres undefined) stands inactive: -12.6%; under `Cc1cccc(CNC(=O)c2ccc(Cn3c(SCc4cccc(F)c4)nc4cccnc43)cc2)c1`, inactive: -26.7%. For the compound `Cc1ccc(NS(=O)(=O)c2cn(C)c(C)n2)c(Br)c1`, the activation was inactive: 34.7%. Turning to `COc1ccc(CNC(=O)C2CCN(S(=O)(=O)N3CCC(C)CC3)CC2)c(OC)c1`, the activation was inactive: -5.76%. As to `COc1ccc(NC(=O)CCn2cnnn2)cc1`, the activation was inactive: -2.43%. Under `CCCSc1ncc(Cl)c(C(=O)Nc2ccc(S(=O)(=O)N3CCCCC3C)cc2)n1` (centres undefined) stands inactive: -23.6%. Under `Cc1ccc2c(c1)c1c(c(=O)n(Cc3ccccc3)c(=O)n1Cc1cccc(F)c1)n2C` stands inactive: -5.56%.

As to `N#C/C(=C\c1cccc(F)c1)c1nc(-c2cc3ccccc3oc2=O)cs1`, the activation is inactive: -5.42%. Regarding `Cc1ccccc1OCc1nnc(SCc2cc(=O)c3cc(F)ccc3[nH]2)n1C`, the activation was inactive: 46.5%. Turning to `CCC1CN(CC(=O)NCc2cccc(Br)c2)c2ccccc2S1` (centres undefined), the activation is inactive: 19.4%. Under `Cc1ccc(S(=O)(=O)c2cn(CC(=O)Nc3ccc4c(c3)OCO4)c3ccc(C)cc3c2=O)cc1` stands inactive: -15.8%. Under `COc1ccc(-c2nc3ccccc3o2)cc1NC(=O)c1cc([N+](=O)[O-])ccc1N1CCOCC1` stands inactive: -8.73%. `COc1ccc(-c2ccc(CCC(=O)O)n2-c2ccccc2C(F)(F)F)cc1`: the activation was inactive: -2.21%. Under `COC(=O)Cc1c(C)nc2nc(NCc3ccc(Br)cc3)[nH]n2c1=O` stands inactive: 25%. Under `CC(Oc1ccccc1)C(=O)Nc1ccccc1C(=O)OCc1cc(=O)n2nc(C3CC3)sc2n1` (centres undefined) stands inactive: 28.7%. Under `CCc1nnc(SCC(=O)Nc2ccc(OC)c(OC)c2)c2cc3occc3n12` stands inactive: -6.39%. Consider `CCc1ccc(N2CC(C)Cn3c2nc2c3c(=O)n(CC(=O)O)c(=O)n2C)cc1` (centres undefined), for which the activation was inactive: 9.02%. As for `CC[C@H](c1ccc(O)cc1)[C@@H](CC)c1ccc(O)cc1`, the activation was inactive: 8.6%. Take `Cc1c(Nc2ncccc2C(=O)O)cccc1C(F)(F)F`: the activation was inactive: 30.8%. For `CCOc1ccc(-c2cc(C)n3nc(C(=O)Nc4ccc(C)c(C)c4)cc3n2)cc1`, the activation is inactive: 3.4%. Under `CCOC(=O)CN(Cc1ccccc1)C(C(=O)NC1CCCCC1)c1ccccc1` (centres undefined) stands inactive: -22.4%; under `COc1ccc(CCNC(=O)c2c(Nc3ccccc3C)sc(C(=O)c3ccccc3)c2N)cc1OC`, inactive: -50.9%. Under `Cc1cccc2nc(Cn3c(=O)n(-c4ccccc4)c(=O)c4c5c(sc43)CCC5)cc(=O)n12` stands inactive: -1.07%. Under `COc1ccccc1OCCCn1c(C2CC(=O)N(c3ccc(F)cc3)C2)nc2ccccc21` (centres undefined) stands inactive: 8.11%; under `CC(C)n1c(SCC(=O)c2ccc(F)cc2)nc2c(sc3ccccc32)c1=O`, inactive: -4.7%. With `CCCN(C(=O)c1c(C)oc2ncn(CC(C)C)c(=O)c12)c1ccccc1C`, the activation is inactive: -17.3%.

Consider `COc1ccc(-c2nn(C)c3sc(C(=O)Nc4cc(OC)c(OC)c(OC)c4)cc23)cc1OC`, for which the activation was inactive: -18.2%. Under `CCN1c2ccccc2-c2nc(SCC(=O)Nc3cc(OC)cc(OC)c3)ncc2S1(=O)=O` stands inactive: 19.1%; under `CCCCC(=O)OCC(=O)[C@H]1[C@H](C)C[C@H]2[C@@H]3C[C@H](F)C4=CC(=O)C=C[C@]4(C)[C@@]3(F)[C@@H](O)C[C@@]21C`, inactive: 36.7%.

Source of the values: PubChem BioAssay AID1346428 (National Center for Advancing Translational Sciences (NCATS), 2018).
